Laboratory results reported in the supplement of paper PMC8728848.
Some of the results follow.

Experiments:
Test in all cases: glycan array binding signal (z-score within array); higher = stronger binding
Conditions in all cases: glycan notation: IUPAC condensed, linker removed
[1] = molecular target: Neu5Ac(a2-6)Gal(b1-4)GlcNAc(b1-2)Man(a1-3)[Man(a1-6)]Man(b1-4)GlcNAc(b1-4)GlcNAc
Method in brief: (§1)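 Glycan array data came from 3228 arrays in the Consortium for Functional Glycomics database, and only arrays with an available protein sequence were kept. Glycan names were put into IUPAC-condensed notation, and columns mapping to the same glycan were averaged. The binding signal is a within-array Z-score, averaged across arrays of one protein sequence run at different concentrations or buffers and across linkers. A negative Z-score can be read as non-binding.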

[2] = molecular target: Neu5Ac(a2-6)Gal(b1-4)GlcNAc(b1-2)Man(a1-3)[Neu5Ac(a2-3)Gal(b1-4)GlcNAc(b1-2)Man(a1-6)]Man(b1-4)GlcNAc(b1-4)GlcNAc
Method in brief: as §1

[3] = molecular target: Neu5Ac(a2-6)Gal(b1-4)GlcNAc(b1-2)Man(a1-3)[Neu5Ac(a2-6)Gal(b1-4)GlcNAc(b1-2)Man(a1-6)]Man(b1-4)GlcNAc(b1-4)GlcNAc
Method in brief: as §1

[4] = molecular target: Neu5Ac(a2-6)Gal(b1-4)GlcNAc(b1-2)Man(a1-3)[Neu5Ac(a2-6)Gal(b1-4)GlcNAc(b1-2)Man(a1-6)]Man(b1-4)GlcNAc(b1-4)[Fuc(a1-6)]GlcNAc
Method in brief: as §1

[5] = molecular target: Neu5Ac(a2-6)Gal(b1-4)GlcNAc(b1-2)Man(a1-6)Man(b1-4)GlcNAc(b1-4)GlcNAc
Method in brief: as §1

[6] = molecular target: Neu5Ac(a2-6)Gal(b1-4)GlcNAc(b1-2)Man(a1-6)[Gal(b1-4)GlcNAc(b1-2)Man(a1-3)]Man(b1-4)GlcNAc(b1-4)GlcNAc
Method in brief: as §1

[7] = molecular target: Neu5Ac(a2-6)Gal(b1-4)GlcNAc(b1-2)Man(a1-6)[GlcNAc(b1-2)Man(a1-3)]Man(b1-4)GlcNAc(b1-4)GlcNAc
Method in brief: as §1

[8] = molecular target: Neu5Ac(a2-6)Gal(b1-4)GlcNAc(b1-2)Man(a1-6)[Man(a1-3)]Man(b1-4)GlcNAc(b1-4)GlcNAc
Method in brief: as §1

[9] = molecular target: Neu5Ac(a2-6)Gal(b1-4)GlcNAc(b1-2)[Neu5Ac(a2-6)Gal(b1-4)GlcNAc(b1-4)]Man(a1-3)[GlcNAc(b1-4)][Neu5Ac(a2-6)Gal(b1-4)GlcNAc(b1-2)[Neu5Ac(a2-6)Gal(b1-4)GlcNAc(b1-6)]Man(a1-6)]Man(b1-4)GlcNAc(b1-4)GlcNAc
Method in brief: as §1

[10] = molecular target: Neu5Ac(a2-6)Gal(b1-4)GlcNAc(b1-2)[Neu5Ac(a2-6)Gal(b1-4)GlcNAc(b1-4)]Man(a1-3)[GlcNAc(b1-4)][Neu5Ac(a2-6)Gal(b1-4)GlcNAc(b1-4)Man(a1-6)]Man(b1-4)GlcNAc(b1-4)GlcNAc
Method in brief: as §1

[11] = molecular target: Neu5Ac(a2-6)Gal(b1-4)GlcNAc(b1-2)[Neu5Ac(a2-6)Gal(b1-4)GlcNAc(b1-6)]Man(a1-6)[Neu5Ac(a2-6)Gal(b1-4)GlcNAc(b1-2)Man(a1-3)][GlcNAc(b1-4)]Man(b1-4)GlcNAc(b1-4)GlcNAc
Method in brief: as §1

[12] = molecular target: Neu5Ac(a2-6)Gal(b1-4)GlcNAc(b1-3)Gal(b1-3)GlcNAc
Method in brief: as §1

[13] = molecular target: Neu5Ac(a2-6)Gal(b1-4)GlcNAc(b1-3)Gal(b1-4)GlcNAc
Method in brief: as §1

[14] = molecular target: Neu5Ac(a2-6)Gal(b1-4)GlcNAc(b1-3)Gal(b1-4)GlcNAc(b1-2)Man(a1-3)[Neu5Ac(a2-6)Gal(b1-4)GlcNAc(b1-3)Gal(b1-4)GlcNAc(b1-2)Man(a1-6)]GalNAc
Method in brief: as §1

[15] = molecular target: Neu5Ac(a2-6)Gal(b1-4)GlcNAc(b1-3)Gal(b1-4)GlcNAc(b1-3)Gal(b1-4)GlcNAc
Method in brief: as §1

[16] = molecular target: Neu5Ac(a2-6)Gal(b1-4)GlcNAc(b1-3)Gal(b1-4)GlcNAc(b1-3)Gal(b1-4)GlcNAc(b1-2)Man(a1-3)[Neu5Ac(a2-6)Gal(b1-4)GlcNAc(b1-3)Gal(b1-4)GlcNAc(b1-3)Gal(b1-4)GlcNAc(b1-2)Man(a1-6)]GalNAc
Method in brief: as §1

[17] = molecular target: Neu5Ac(a2-6)Gal(b1-4)GlcNAc(b1-3)Gal(b1-4)GlcNAc(b1-3)GalNAc
Method in brief: as §1

[18] = molecular target: Neu5Ac(a2-6)Gal(b1-4)GlcNAc(b1-3)Gal(b1-4)GlcNAc(b1-3)[Neu5Ac(a2-6)Gal(b1-4)GlcNAc(b1-3)Gal(b1-4)GlcNAc(b1-6)]GalNAc
Method in brief: as §1

[19] = molecular target: Neu5Ac(a2-6)Gal(b1-4)GlcNAc(b1-3)Gal(b1-4)GlcNAc(b1-6)[Gal(b1-3)]GalNAc
Method in brief: as §1

[20] = molecular target: Neu5Ac(a2-6)Gal(b1-4)GlcNAc(b1-3)Gal(b1-4)[Fuc(a1-3)]GlcNAc(b1-3)Gal(b1-4)[Fuc(a1-3)]GlcNAc
Method in brief: as §1

[21] = molecular target: Neu5Ac(a2-6)Gal(b1-4)GlcNAc(b1-3)GalNAc
Method in brief: as §1

[22] = molecular target: Neu5Ac(a2-6)Gal(b1-4)GlcNAc(b1-3)[Neu5Ac(a2-6)Gal(b1-4)GlcNAc(b1-6)]GalNAc
Method in brief: as §1

[23] = molecular target: Neu5Ac(a2-6)Gal(b1-4)GlcNAc(b1-6)GalNAc
Method in brief: as §1

[24] = molecular target: Neu5Ac(a2-6)Gal(b1-4)GlcNAc(b1-6)[Gal(b1-3)GlcNAc(b1-3)]Gal(b1-4)Glc
Method in brief: as §1

[25] = molecular target: Neu5Ac(a2-6)Gal(b1-4)GlcNAc(b1-6)[Gal(b1-3)]GalNAc
Method in brief: as §1

[26] = molecular target: Neu5Ac(a2-6)Gal(b1-4)GlcNAc6S
Method in brief: as §1

Neu5Ac(a2-6)GalNAc = molecular target: Neu5Ac(a2-6)GalNAc
Method in brief: as §1

[27] = molecular target: Neu5Ac(a2-6)GalNAc(b1-4)GlcNAc
Method in brief: as §1

[28] = molecular target: Neu5Ac(a2-6)GalNAc(b1-4)GlcNAc6S
Method in brief: as §1

[29] = molecular target: Neu5Ac(a2-6)GlcNAc(b1-4)GlcNAc
Method in brief: as §1

[30] = molecular target: Neu5Ac(a2-6)GlcNAc(b1-4)GlcNAc(b1-4)GlcNAc
Method in brief: as §1

B1: Arath Fbox (Arabidopsis thaliana), NP_178341.1 (protein)
chain: EFTWGRKRRVKSESSPFDSFPEDCISYIISFTNPRDACVAATVSKTFESTVKSDIIWEKFLPADYESLIPPSRVFSSKKELYFSLCNDPVLFDDDKKSVWLEKASGKRCLMLSAMNLSIIWGDNPQYWQWIPIPESRFEKVAKLRDVCWFEIRGRTNTRVLSPRTRYSAYIVFKGVDKCYGFQNVAIEAAVGVVGQEPSRRLICFSEAIRRGRRNVVKPKQREDGWMEIELGEFFNDGGIMDNDEIEMSALETKQLNRKCGLIIQGIEIRPAKILAAAAASFLEQKLISEEDLNSAVDHHHHHH
Question: For B1, which “glycan array binding signal (z-score)” value [1] is on record?
Answer: -0.106

Question: What about the “glycan array binding signal (z-score)” value [2] of the same binder?
Answer: -0.525

Question: And the “glycan array binding signal (z-score)” value [3]?
Answer: -0.41

Question: What about the “glycan array binding signal (z-score)” value [4] of the same binder?
Answer: -0.642

Question: And the “glycan array binding signal (z-score)” value [5]?
Answer: -0.782

Question: And the “glycan array binding signal (z-score)” value [6]?
Answer: 3.21

Question: What about the “glycan array binding signal (z-score)” value [7] of the same binder?
Answer: 0.859

Question: And the “glycan array binding signal (z-score)” value [8]?
Answer: -0.73

Question: And the “glycan array binding signal (z-score)” value [9]?
Answer: -0.533

Question: And the “glycan array binding signal (z-score)” value [10]?
Answer: -0.603

Question: What about the “glycan array binding signal (z-score)” value [11] of the same binder?
Answer: -0.112

Question: And the “glycan array binding signal (z-score)” value [12]?
Answer: -0.287

Question: What about the “glycan array binding signal (z-score)” value [13] of the same binder?
Answer: -0.262

Question: And the “glycan array binding signal (z-score)” value [14]?
Answer: 0.131

Question: What about the “glycan array binding signal (z-score)” value [15] of the same binder?
Answer: -0.394

Question: What about the “glycan array binding signal (z-score)” value [16] of the same binder?
Answer: 0.442

Question: And the “glycan array binding signal (z-score)” value [17]?
Answer: -0.507

Question: And the “glycan array binding signal (z-score)” value [18]?
Answer: 0.842

Question: What about the “glycan array binding signal (z-score)” value [19] of the same binder?
Answer: -0.744

Question: And the “glycan array binding signal (z-score)” value [20]?
Answer: -0.592

Question: And the “glycan array binding signal (z-score)” value [21]?
Answer: -0.123

Question: What about the “glycan array binding signal (z-score)” value [22] of the same binder?
Answer: -0.722

Question: What about the “glycan array binding signal (z-score)” value [23] of the same binder?
Answer: -0.521

Question: What about the “glycan array binding signal (z-score)” value [24] of the same binder?
Answer: 0.366

Question: What about the “glycan array binding signal (z-score)” value [25] of the same binder?
Answer: -0.396

Question: And the “glycan array binding signal (z-score)” value [26]?
Answer: -0.613

Question: What about the “glycan array binding signal (z-score)” value (Neu5Ac(a2-6)GalNAc) of the same binder?
Answer: -0.759

Question: And the “glycan array binding signal (z-score)” value [27]?
Answer: -0.344

Question: What about the “glycan array binding signal (z-score)” value [28] of the same binder?
Answer: -0.31

Question: And the “glycan array binding signal (z-score)” value [29]?
Answer: -0.68

Question: And the “glycan array binding signal (z-score)” value [30]?
Answer: -0.754
